# Results taken from PMC4336329 (PLoS ONE, 2015).
# The campaign covered roughly 310,000 compounds. About 14,000 (4.5%) showed an effect of 50% or more. Effects have a minus sign here. This is one part of the list. Where a SMILES comes first, the peptide text is derived from it. [ ]: non-standard residue; d: D form. The star is where a group is joined. ξ: configuration not given here. ξF = NC(Cc1ccccc1)C(=O)O; Cbz = O=C(OCc1ccccc1)*
# Target: human ether-à-go-go-related gene (hERG) potassium channel (human, UniProt Q12809)
# Experiment: primary screen, population patch clamp on CHO cells stably expressing hERG
# 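Note: peak tail current of the secondary pulse compared with the same well before compound.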
# Chain of human ether-à-go-go-related gene (hERG) potassium channel (Q12809 whole entry, looked up): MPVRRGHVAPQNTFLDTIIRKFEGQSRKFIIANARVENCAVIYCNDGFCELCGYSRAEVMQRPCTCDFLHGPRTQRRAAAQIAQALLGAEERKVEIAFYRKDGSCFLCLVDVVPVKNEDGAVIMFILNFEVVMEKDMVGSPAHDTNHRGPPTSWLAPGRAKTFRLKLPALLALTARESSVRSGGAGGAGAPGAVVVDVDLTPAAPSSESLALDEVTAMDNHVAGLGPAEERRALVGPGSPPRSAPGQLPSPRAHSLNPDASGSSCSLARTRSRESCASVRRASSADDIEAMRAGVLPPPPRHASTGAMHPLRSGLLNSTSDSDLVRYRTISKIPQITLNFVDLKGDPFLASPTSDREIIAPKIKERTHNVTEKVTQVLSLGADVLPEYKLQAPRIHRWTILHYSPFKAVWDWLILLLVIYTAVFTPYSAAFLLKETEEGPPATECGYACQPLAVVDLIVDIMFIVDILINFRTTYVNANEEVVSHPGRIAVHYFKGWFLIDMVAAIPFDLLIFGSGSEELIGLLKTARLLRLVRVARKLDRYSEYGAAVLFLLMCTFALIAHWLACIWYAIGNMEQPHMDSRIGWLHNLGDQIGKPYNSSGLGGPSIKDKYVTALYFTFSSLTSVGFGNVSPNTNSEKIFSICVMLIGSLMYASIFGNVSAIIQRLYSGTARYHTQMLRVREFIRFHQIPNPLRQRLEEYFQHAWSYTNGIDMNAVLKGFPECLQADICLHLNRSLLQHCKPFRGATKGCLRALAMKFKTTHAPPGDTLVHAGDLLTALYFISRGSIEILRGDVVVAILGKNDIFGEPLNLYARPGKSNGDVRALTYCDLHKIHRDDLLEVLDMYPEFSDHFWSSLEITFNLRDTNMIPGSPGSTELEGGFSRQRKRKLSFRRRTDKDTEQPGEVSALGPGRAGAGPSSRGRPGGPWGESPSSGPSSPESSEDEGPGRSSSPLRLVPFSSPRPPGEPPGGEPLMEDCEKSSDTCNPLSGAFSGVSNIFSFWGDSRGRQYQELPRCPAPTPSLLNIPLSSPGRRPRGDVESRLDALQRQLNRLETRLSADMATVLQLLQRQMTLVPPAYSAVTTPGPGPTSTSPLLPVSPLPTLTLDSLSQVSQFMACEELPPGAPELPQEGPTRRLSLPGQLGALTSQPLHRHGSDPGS
row,Structure (SMILES),"hERG current change (%, negative = inhibition) at 10uM"
1,Cc1cc(Cl)ccc1OCCCC(=O)N1CCCCC1,-14.2%
2,CCCOc1ccc(C(=O)NCCC(=O)NCCCC(=O)OCC)cc1,-10%
3,CCOCc1c(C(=O)OCC(=O)Nc2ccccc2C(N)=O)oc2ccccc12,-11.8%
4,COc1cccc(/C=N/NC(=O)C(=O)N2CCCC2)c1OC,13.7%
5,Cc1ccc(C(=O)/C=C/c2ccc3ncccc3c2)cc1,-2.43%
6,Fc1ccccc1-c1cc2ccccc2cn1,-7.07%
7,CCOC(=O)Cc1nnc(NC(=O)CSc2ncc(-c3ccccc3)nn2)s1,-58.7%
8,O=C1CSC(c2ccccc2F)N1c1ccccc1F (centres unmarked),9.77%
9,CCC(C)(C)NC(=O)c1ccc(S(=O)(=O)N(C)c2ccccc2OC)cc1,1.3%
10,Nc1cc(N2CCNCC2)ccc1[N+](=O)[O-],-2.54%
11,C=CCNC(=O)N1CCC(c2nc3ccccc3s2)CC1,10.5%
12,CN1C(=O)C(CC(=O)Nc2ccc(F)cc2)N(CCCc2ccccc2)C1=S (centres unmarked),0.0595%
13,C/C(=N\NC(=O)COc1ccccc1)c1cccs1,0.14%
14,Cc1ccc2c(c1)COc1c3ccc(C(=O)O)cc3nn1-2,5.07%
15,COc1ccccc1OCCn1c(=O)sc2ccccc21,30%
16,CCC(Sc1nc2n[nH]c(C)c2c(=N)n1-c1cccc(Cl)c1C)C(=O)N(CC)CC (centres unmarked),-4.52%
17,Cn1ncc(Cl)c(Oc2ccccc2)c1=O,10.2%
18,O=C(CN1CCN(CC(=O)Nc2ccccc2F)CC1)Nc1ccc2c(c1)OCCO2,-71.2%
19,COc1ccc2oc(C(=O)OCc3nnc(-c4ccccc4)o3)c(C)c2c1,19.8%
20,Cc1nnc2c(NCC(C)c3ccccc3)nc3ccccc3n12 (centres unmarked),-2.36%
21,COc1ccc(-c2csc(N3CCN(c4cc5c(cc4Cl)nc(-c4ccncc4)n5CCOCCO)CC3)n2)cc1,12.6%
22,Cc1ccc(C(=O)N2CCC3(CC2)Oc2ccc(Cl)cc2C(=O)C32CC(c3ccccc3)=NO2)s1 (centres unmarked),12.4%
23,O=C(NC(=S)NCCN1CCOCC1)c1cccc(Cl)c1,-16.9%

row,Structure (SMILES),"hERG current change (%, negative = inhibition) at 10uM"
1,CCn1c(-c2nonc2NC(=O)c2ccccc2)nc2ccccc21,0.625%
2,CCOC(=O)NNC1CC(=O)N(c2ccccc2)C1=O (centres unmarked),7.81%
3,Fc1ccc(NC(=S)NC23CN4CN(CN(C4)C2)C3)cc1,2.87%
4,CCOC(=O)CN(C(=O)CSc1nnc2c(n1)[nH]c1ccc(F)cc12)c1ccccc1,-19.9%
5,Cc1ccc(C)c(S(=O)(=O)N2CCN(C(C(=O)Nc3ccc(F)cc3)c3ccccc3)CC2)c1 (centres unmarked),7.1%
6,COc1ccc(C(=O)Nc2ccc(N3CCN(c4ccc(OC)cc4)CC3)c(C#N)c2)cc1,9.76%
7,COc1ccc(OCC(=O)Nn2c(-c3cccc(OC)c3)nc3ccccc3c2=O)cc1,-24.1%
8,Cc1cc(C)cc(NC(=O)NCc2ccccn2)c1,17.1%
9,CN(CC(=O)Nc1ccc(Cl)c(C(F)(F)F)c1)C(=O)CCN1C(=O)C2CC=CCC2C1=O (centres unmarked),-37.2%
10,O=C(O)c1ccc(N/N=C/c2c(F)cccc2Cl)cc1,18.6%
11,CCNC(=S)N/N=C/c1ccc(OCCOc2ccccc2C)cc1,1.5%
12,CN(C)C(=O)Oc1c(Cl)cc(Cl)c2ccccc12,-36.2%
13,O=C(CCS(=O)(=O)c1ccc(Br)cc1)N1CCN(Cc2ccccc2)CC1,-27%
14,Cc1ccc(C(=O)c2sc(Nc3ccccc3)c(C#N)c2N)cc1,32.5%
15,O=C(NCC1CCOCC1)c1cc(COc2cccc(C(F)(F)F)c2)on1,-25.1%
16,Cc1ccc2c(c1)C(O)(CC(=O)c1cccnc1)C(=O)N2 (centres unmarked),-7.87%
17,COc1ccc(CSC(=N)N)cc1[N+](=O)[O-].Cl,-3.72%
18,COc1cc(/C=N\NC(=O)CNC(=O)C(c2ccccc2)c2ccccc2)ccc1O,-25.7%
19,COc1ccc(S(=O)(=O)N2CCN(CC(=O)Nc3ccc(F)c(F)c3)CC2)cc1,-66.4%
20,Cc1cc(C)n(-c2ccc(C(=O)O)cc2[N+](=O)[O-])n1,12.5%
21,Cc1cc2nc(C)c(Cl)c(=O)n2[nH]1,22.4%
22,O=C(COC(=O)C1c2ccccc2Oc2ccccc21)Nc1ccc2c(c1)OCO2,8.92%
23,Cc1ccc(OC(C)C(=O)N2CC(=O)Nc3ccccc32)c(C)c1 (centres unmarked),2.56%

row,Structure (SMILES),"hERG current change (%, negative = inhibition) at 10uM"
1,Cc1nnc(SC(C)C)n(N)c1=O,19.6%
2,COc1ccc(CCNC(=O)COC(=O)/C=C/c2ccc(OCC#N)c(OC)c2)cc1,3.03%
3,CN(CC(=O)N1CCc2[nH]c3ccc(F)cc3c2C1)CC1OCCO1,5.81%
4,CCc1cc(=O)oc2cc(C)cc(OCC(=O)N3CCC[C@@H]3C(=O)O)c12,6.83%
5,COC(=O)C1C(c2ccc(OC)c(OC)c2)NC(c2ccc(OC)c(OC)c2)C(C(=O)OC)S1(=O)=O (centres unmarked),14.1%
6,CC(=O)N(C)c1ccc(NC(=O)N2CCOCC2)cc1,4.94%
7,CCc1ccc(S(=O)(=O)Nc2c(C)nc3nc[nH]n3c2=O)cc1,19.9%
8,CN(C)C(=O)CN1CCN(Cc2cn(C)nc2-c2ccc3c(c2)OCCO3)CC1,5.11%
9,O=C(CCc1ccccc1)NCCCN1CCOCC1,12.3%
10,CCN(CC(=O)Nc1c(F)cccc1F)C(=O)c1ccc(-c2ccc(C(C)=O)cc2)o1,-25.6%
11,COc1ccc(C(=O)NCc2ccc(C)cc2)cc1S(=O)(=O)N1CCCc2ccccc21,-5.67%
12,COc1ccc(OC)c(NC(=O)c2cccc(C)c2[N+](=O)[O-])c1,18.4%
13,COc1cccc(C2=CC(c3cccs3)n3nnnc3N2)c1 (centres unmarked),14.5%
14,O=C(CN1CCC(C(=O)c2ccc(F)cc2)CC1)NCc1ccccc1F,-39.6%
15,O=C(c1cc(C(=O)NCc2ccccc2)c(=O)n(Cc2ccccc2)c1)c1cc(Br)ccc1O,-3.34%
16,COc1ccc(CN2C(=O)[C@@H]3Cc4c([nH]c5ccccc45)C(C)(C)N3C2=O)cc1,-11.6%
17,COCCNC(=O)C(=O)Nc1ccc(Br)cc1,2.86%
18,CCCn1c(-c2cccc([N+](=O)[O-])c2)nc2c1c(=O)[nH]c(=O)n2Cc1ccccc1,-66.4%
19,COc1ccc(/C=C(/NC(=O)c2ccccc2)c2nc3ccc(Cl)cc3[nH]2)cc1OC,-16.6%
20,COc1ccccc1-c1nnc(NC(=O)CSc2nncn2C)s1,0.916%
21,COC(=O)NCc1ccc(CNC(=O)OC)cc1,4.84%
22,CCOc1ccc(-c2cc(CCCC(=O)NCc3ccco3)no2)cc1,-9.6%
23,Cn1c(SCC(=O)Nc2ccc3c(c2)OCCO3)nnc1-c1ccccn1,-4.53%

row,Structure (SMILES),"hERG current change (%, negative = inhibition) at 10uM"
1,O=C(CSc1n[nH]c(-c2cccnc2)n1)Nc1ccc([N+](=O)[O-])cc1Br,-20.9%
2,Cc1ccc(S(=O)(=O)NC(=O)c2cccc(Br)c2)cc1,10.6%
3,O=C(Nc1cc([N+](=O)[O-])ccc1N1CCCC1)c1cccs1,-65.4%
4,CN(C(=O)COC(=O)c1ccc(Cl)nc1)c1c(N)n(Cc2ccccc2)c(=O)[nH]c1=O,7.34%
5,COc1ccccc1CNC(=O)N/C=C/c1ccc(Cl)cc1,8.3%
6,CCOC(=O)C(Cc1ccccc1)NC(=O)CNC(=O)CNC(=O)OCc1ccccc1 (stereo not drawn) (Cbz-Gly-Gly-[ξF]-OEt),15.9%
7,CSc1ccccc1-n1nnnc1SCC(=O)NCc1cccs1,-8.64%
8,COc1c(OC)c2[nH]c(=O)cc3c4ccccc4n(c1=O)c23,-23.3%
9,Cc1ccc(C(=O)Nc2ncnc3sc4c(c23)CCCCC4)cc1,0.0753%
10,Cc1cc(NC(=O)CCC(=O)N(Cc2ccccc2)C(C(=O)NC2CCCC2)c2ccco2)no1 (centres unmarked),-21.8%
11,CCOC(=O)c1csc(-n2nc(C)cc2C(F)(F)F)n1,9.28%
12,COc1ccc(OC)c(C(c2c(O)c3ccccc3oc2=O)c2c(C)n(C)n(-c3ccccc3)c2=O)c1 (centres unmarked),13.8%
13,CC(Cc1cccnc1)NC(=O)CCc1nnc(-c2ccccc2)o1 (centres unmarked),12.9%
14,C[C@@H](CO)NC(=O)c1ccc2c3n(nc2c1)-c1ccccc1CO3,9.12%
15,Cc1ccc(C)c(OCC(=O)N2CCOCC2)c1,4.81%
16,O=C(CN1CCCC1)Nc1ccc(Cl)cc1C(=O)c1ccccc1.O=C(O)C(=O)O,-46.8%
17,Cc1ccc(OCCOc2cccc(C=C3C(=O)NC(=O)NC3=O)c2)cc1,21.5%
18,C=CCNC(N)=S,22.5%
19,Cc1nc(N)sc1C(=O)N/N=C/c1cccnc1,19.7%
20,COc1ccccc1N1CCN(S(=O)(=O)c2cc(Br)cnc2N)CC1,6.94%
